± gives the standard deviation. In all, about 5,500 sequences were measured (“pre-steady-state target cleavage rate”: median about 0.1, highest 2% from about 0.64 on). This is a selection; strong and weak results do not stand in their true shares.

The test system of this test is MIWI (PIWIL1) piRISC loaded with piRNA #2 (30 nt). In words: pre-steady-state target cleavage rate (min^-1); MIWI and MILI are mouse PIWI proteins and EfPiwi is from a freshwater sponge; tags in brackets are library labels; higher = faster piRNA-guided slicing of the target. As to conditions: guide: piRNA #2 5'p-UUAGGUAACCCAGUAGAUCCAGAGGAAUUC; auxiliary factor: 500 nM mouse GTSF1. As to the method: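 Cleave-'n-Seq: a library of target RNAs (target site embedded in constant flanks, ACAGCATTCCGCGTTAGTGATATCCG... 5' flank; DNA-blocked outside the site) at 0.1 nM was incubated with 1 nM active mouse MILI or MIWI piRISC (synthetic 5'-monophosphorylated piRNA guide) with or without 500 nM mouse GTSF1 at 33 °C for 1 min to 16 h. Uncleaved targets were sequenced and normalised to non-target controls, and the pooled three trials were fitted to a burst-and-steady-state model to give the pre-steady-state cleavage rate (min^-1; k3 is constrained to at most 1e-4). Sequence is the target site only; target names encode pairing extent (gX:gY) and contiguous / 1-mismatch / 2-mismatch / bulge geometry. Fits with R² ≤ 0 are excluded.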
As for CUUAAGGACUGGAUCGACUGGGUUACCUAA, the “pre-steady-state target cleavage rate” value is 0.0762 ± 0.035.

For CUUAAGCUCUGUGAUCUACUGGGUUACCUAA, the “pre-steady-state target cleavage rate” value is 0.116 ± 0.02. For CAAUUGCUCUGGAUGUACUGGGUUACCUAA, the “pre-steady-state target cleavage rate” value is 0.328 ± 0.047. As to CUAUUCCUCUGCAUCUACUGGCUUACCUAA, the “pre-steady-state target cleavage rate” value turned out to be 0.133 ± 0.013.

For CUAUACCUCUGGAUCUUCUGGGUUACCUAA, the “pre-steady-state target cleavage rate” value worked out at 0.403 ± 0.057. The value for CUUAACCUCUGGAUCUACAGGGUUUCCUAA was 0.0845 ± 0.014; that for GAAUUCCUCUGGAUCUACUGGGAAACCUAA was 0.204 ± 0.036. For the sequence GAAUACGUCUGGAUCUACUGGGUUACCUAA, the “pre-steady-state target cleavage rate” value turned out to be 0.301 ± 0.033. The value for GAAUUCCUCUGGAUCUACUGGGGUACCUAA was 0.109 ± 0.032. In the case of GAAUUCCUCUGCUACUACUGGGUUACCUAA, the “pre-steady-state target cleavage rate” value came to 0.373 ± 0.038. The value for CAAUUCCUCUGGAUCACUGGGUUACCUAA was 0.0316 ± 0.01.

Regarding CAAUUCCUCUGCAUCUACUGGGAUACCUAA, the “pre-steady-state target cleavage rate” value came out at 0.17 ± 0.023. The value for CUAUUCCUCUGGAUGUACUGGGAUACCUAA was 0.178 ± 0.027; that for CUAUUCGUCUGGAUCUACUGCGUUACCUAA was 0.379 ± 0.047; that for CUUAAGGACUGGGUCUACUGGGUUACCUAA was 0.107 ± 0.039. Turning to GAAUACCUCUGGAUCUAGUGGGUUACCUAA, the “pre-steady-state target cleavage rate” value is 0.0659 ± 0.012.

CUUAAGGAGACCUUCUACUGUGUUACCUAA: the “pre-steady-state target cleavage rate” value was determined as 0.00649 ± 0.0034.

With CAAUACCUCUGGAUCUACUGGGUUACCAAA, the “pre-steady-state target cleavage rate” value is 0.479 ± 0.072.

For the sequence GAAUUCCUCUGGAUCAACAGGGUUACCUAA, the “pre-steady-state target cleavage rate” value was 0.114 ± 0.02. The value for CUUAACCUCUGGAUUACUGGGUUACCUAA was 0.398 ± 0.03.

With CUUUUCCUGACGAUCUACUGGGUUACCUAA, the “pre-steady-state target cleavage rate” value was determined as 0.121 ± 0.023.

Consider CUUAAGGAGUGGAUCUAAUGGGUUACCUAA, for which the “pre-steady-state target cleavage rate” value was 0.0117 ± 0.0041. The value for CUUAAGGUCUGGAUCCACUGGGUUACCUAA was 0.111 ± 0.013. The value for CUAUUCGUCUGGAUCUACUGGGUAACCUAA was 0.155 ± 0.033; that for CUUAAGGAGUGGCAUCUACUGGGUUACCUAA was 0.0176 ± 0.0063; that for CAAAUCCUCUGGAUCUACUCGGUUACCUAA was 0.102 ± 0.023.

For CUUAAGGAGUGGAUCUUCUGGGUUACCUAA, the “pre-steady-state target cleavage rate” value came to 0.0111 ± 0.0062. With CAAUUCCUCUGGAUCUAGAGGGUUACCUAA, the “pre-steady-state target cleavage rate” value amounted to 0.0271 ± 0.0084. Turning to CUUCUCCUCUGGAUCUACUGGGUUACCUAA, the “pre-steady-state target cleavage rate” value is 0.26 ± 0.035. The value for GAAAUCCUCUGGAUCUUCUGGGUUACCUAA was 0.192 ± 0.038.

CUAUUCCUCUGGAUCUACUGGGCUACCUAA: the “pre-steady-state target cleavage rate” value came to 0.163 ± 0.024.

For the sequence CAAUUCCUCUGGAUCUAGUGGCUUACCUAA, the “pre-steady-state target cleavage rate” value turned out to be 0.00676 ± 0.0056. Take CUUUUCCUCUGGAUCUACAGGGUUACGUAA: the “pre-steady-state target cleavage rate” value is 0.276 ± 0.026. The result for CUUAAGCUCUGGAUGUACUGGGUUUCCUAA reads 0.0607 ± 0.013; that for CUAUUCCUCACCAUCUACUGGGUUACCUAA, 0.384 ± 0.049; that for CAAUUCCUCUGGAUCUACUGGGUUCCCUAA, 0.301 ± 0.045. For the sequence CUUAAGCUCUGGUUGUACUGGGUUACCUAA, the “pre-steady-state target cleavage rate” value amounted to 0.331 ± 0.026.

Consider CUUAAGGUCUGGAUGUACUGGGUAACCUAA, for which the “pre-steady-state target cleavage rate” value amounted to 0.0309 ± 0.025. The result for CUUAUCCAGUGGAUCUACUGGGUUACCUAA reads 0.548 ± 0.047; that for CUUAACAUCUGGAUCUACUGGGUUACCUAA, 0.276 ± 0.029; that for CUAUUCCUCUGCAUGUACUGGGUUACCUAA, 0.47 ± 0.034. The result for CUUAUCCUCUGGAUCUACUGGGUUAUCCUAA reads 0.413 ± 0.057. In the case of CUUAAGGAGAGGCAUCUACUGGGUUACCUAA, the “pre-steady-state target cleavage rate” value was determined as 0.00586 ± 0.0038. Take CAAUUCCUCUGGAUCUACUGAGUUACCUAA: the “pre-steady-state target cleavage rate” value is 0.869 ± 0.075. The result for CUAUUCCACUCGAUCUACUGGGUUACCUAA reads 0.703 ± 0.037; that for CUUAAGGAGACCUAGAUGUGGGUUACGAUA, less than 0.0001.

With CUUAAGCUCUGGAUCUUCUGGGUUACGUAA, the “pre-steady-state target cleavage rate” value amounted to 0.251 ± 0.027. As to CUUAAGCUCUGGAUGUACUGCGUUACCUAA, the “pre-steady-state target cleavage rate” value came to 0.333 ± 0.049. As to CUUAAGGAGACCUAGAUCACGGUUACCUAA, the “pre-steady-state target cleavage rate” value is less than 0.0001.

As for CUUAACCUCUGGAUGAACUGGGUUACCUAA, the “pre-steady-state target cleavage rate” value turned out to be 0.229 ± 0.018.

On to CUUAAGCCUGGAUCUACUGGGUUACCUAA, for which the “pre-steady-state target cleavage rate” value amounted to 0.276 ± 0.021. With CAAGUCCUCUGGAUCUACUGGGUUACCUAA, the “pre-steady-state target cleavage rate” value came to 0.245 ± 0.06. CUUAAGGACUGGAUCUACUGGGUUGACCUAA: the “pre-steady-state target cleavage rate” value came to 0.154 ± 0.061. With CUUAAGCUGUGGAUCUACUGGCUUACCUAA, the “pre-steady-state target cleavage rate” value turned out to be 0.0289 ± 0.021.

With CUUAAGGAGUGGAUCUACUGGGUUACCAA, the “pre-steady-state target cleavage rate” value was 0.0149 ± 0.0068. As for CUUAACCUCUGGAUCUACGGGUUACCUAA, the “pre-steady-state target cleavage rate” value stood at 0.0288 ± 0.006. Take CUUAACCUCUGGAUCUAGUGGGUUAGCUAA: the “pre-steady-state target cleavage rate” value came to 0.0377 ± 0.007. Consider GAAUUCCUGUGGAUCUACUGGGUUACCUUA, for which the “pre-steady-state target cleavage rate” value worked out at 0.337 ± 0.038. The value for CUUUUCCUCUGGAUCUACUGGCUUUCCUAA was 0.0511 ± 0.013. The result for CUUUUCCUCUGGAUCUACUGGGUUUCGUAA reads 0.236 ± 0.043; that for GAAUUCCUCUCGAUCUAGUGGGUUACCUAA, 0.299 ± 0.03; that for GAAUUCCAUCUGGAUCUACUGGGUUACCUAA, 0.466 ± 0.054. The value for CUAUUCCUCUCGAUGUACUGGGUUACCUAA was 0.636 ± 0.045. With CUUAAGCUCUGGAUCUACUGGCUUACGUAA, the “pre-steady-state target cleavage rate” value was 0.0568 ± 0.014. The result for CUUAAGCUGUGGUUCUACUGGGUUACCUAA reads 0.15 ± 0.033. For the sequence CUUAAGGUCUGGAUCAACUGGGUUACCAAA, the “pre-steady-state target cleavage rate” value is 0.0964 ± 0.022. The value for CUAUUCGUCUGGAUCUACAGGGUUACCUAA was 0.164 ± 0.02; that for CUUAAGCACUGGAUCUUCUGGGUUACCUAA was 0.227 ± 0.03; that for CUUAUCCUCUGGCUCUACUGGGUUACCUAA was 0.574 ± 0.039. The result for CUAUUCCUCUGGAUCUUCUGGCUUACCUAA reads 0.0185 ± 0.0076; that for CUUAUCCUCUGGAUCGACUGGGUUACCUAA, 0.255 ± 0.037; that for CUUAAGCUCUGGAUGUACUGGGUUACCUAA, 0.182 ± 0.023.

(Values after the supplement of paper PMC10338343.)
